49 compounds from PubChem BioAssay AID1508623 (National Center for Advancing Translational Sciences (NCATS), 2021) can be followed below.

Hit rate of the full screen: of about 48,000 compounds, about 450 (0.94%) were called active. Inconclusive results (about 19%) are left out. Calls follow the shape of the dose curve; as a rule, active = well fitted inhibition curve with a large enough effect; inconclusive = small, poorly fitted or top-dose-only effect; inactive = no such curve, though single readings can be large or run the other way. The list shows a part of the results.

This test can be described thus: Primary qHTS for Identification of Small Molecule Inhibitors of Huntingtin Promoter Activity. Also: nearly all actives have a fitted effect of over 50% in size. As to conditions: HEK293 HTT promoter firefly luciferase reporter (activity 0% = vehicle and -100% = no light), 24 h; series mostly up to 57.5 µM; activity change, negative = inhibition: at the top concentration. The essentials:
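Firefly luciferase readout (Dual-Glo, 10 min RT) after 24 h, 37 °C compound exposure (final up to 57.5 uM) of HEK293 reporter cells cultured 24 h beforehand; PTC124 at 50 uM final as control inhibitor; activity scaled vehicle 0%, zero RLU -100%.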
A general note: qHTS replaces the single test concentration by a dilution series.
Turning to `COc1ccccc1N1CCN(c2ccc(=O)n(CC(=O)NCc3ccc(OC(C)C)cc3)n2)CC1`, the “activity change, negative = inhibition” value was inactive: -19.2%.
In the case of `Cc1ccc(NC(=O)Cn2cc3c(n2)CCCC3)c(Cl)c1`, the “activity change, negative = inhibition” value was inactive: -0.86%.
As to `CNc1c2c(nn1C)CCCC2`, the “activity change, negative = inhibition” value was inactive: 9.67%.
The result for `Cc1nn(C)c2c1c(C(F)(F)F)cc(=O)n2CC(=O)NCCC(C)C` reads inactive: -14.4%; that for `COc1ccc(-c2cc3ccc(O)c(CN4CCC(C)CC4)c3oc2=O)cc1`, inactive: -10.2%.
For the compound `COc1ccc(-n2nc(C(=O)Nc3cc(OC)c(OC)c(OC)c3)c(=O)n(C)c2=O)cc1`, the “activity change, negative = inhibition” value is inactive: 7.11%.
As for `COc1ccc(-n2nc(C(=O)N3CCN(c4ccc(F)cc4)CC3)c3c4ccccc4n(C)c3c2=O)cc1`, the “activity change, negative = inhibition” value was inactive: -13.4%.
Take `COc1ccc(C2CC(c3ccccc3)=NN2c2ccc(S(N)(=O)=O)cc2)cc1` (centres undefined): the “activity change, negative = inhibition” value is inactive: -25.2%.
In the case of `O=C(O)c1ccc(Nc2nc3ccccc3n3cnnc23)cc1` it was inactive: 27.9%.
As to `COc1ccc(C2CC(=O)N(Cc3ccc(F)cc3)c3ccccc3S2)cc1OC` (centres undefined), the “activity change, negative = inhibition” value was inactive: -7.82%.
The result for `COc1ccc(OC)c2sc(N3CCN(C(=O)c4ccc5c(c4)CCCC5)CC3)nc12` reads inactive: 0%.
For `CCCCCn1c(=O)[nH]c2cc(C(=O)NCc3ccc(Cl)cc3)ccc2c1=O`, the “activity change, negative = inhibition” value is inactive: -0.429%.
As to `c1ccc(N2CCN(Cc3cccn3-c3nnc(N4CCN(C5CCCCC5)CC4)s3)CC2)cc1`, the “activity change, negative = inhibition” value is inactive: -7.87%.
Consider `CCc1ccccc1NS(=O)(=O)c1ccc2c(c1)CCN2C(=O)C1CC1`, for which the “activity change, negative = inhibition” value was inactive: -11.5%.
For `CCc1ccc(-c2nn(CC(=O)NC3CCCCC3)c3c2cnc2ccc(C)cc23)cc1`, the “activity change, negative = inhibition” value was inactive: 3.44%.
The result for `O=C(CN1CCN(Cc2cccc(Cl)c2)C1=O)NCc1ccc(F)cc1` reads inactive: 12.6%; that for `CCN(c1ccccc1C)S(=O)(=O)c1ccc(N2CCCCS2(=O)=O)cc1`, inactive: -14.8%; that for `CCOc1ccc(CCNC(=O)c2nn(-c3ccc(OC)c(Cl)c3)c(=O)c3c2c2ccccc2n3C)cc1OCC`, inactive: -1.76%.
In the case of `CC(C)Cn1c(=O)c2sccc2n2c(CCCC(=O)NCCc3ccc(Cl)cc3)nnc12` it was inactive: -16.1%.
For the compound `CCc1ccc(NC(=O)CSc2nc(-c3ccccc3Cl)nc3c2Cc2c(CO)cnc(C)c2O3)cc1`, the “activity change, negative = inhibition” value was inactive: 1.05%.
For the compound `COc1ccc(OCC(=O)Nc2ccc3c(c2)nc(CCNC(=O)c2ccco2)n3C)cc1`, the “activity change, negative = inhibition” value was inactive: -24.8%.
For `CC(C)NC(=O)c1ccc(-n2c(-c3ccccc3)cc3c2CCCC3)cc1`, the “activity change, negative = inhibition” value is inactive: 15%.
Consider `CCc1ccc2nc(N(Cc3cccnc3)C(C)=O)sc2c1`, for which the “activity change, negative = inhibition” value is inactive: 3.74%.
Take `O=c1ccc2cc(S(=O)(=O)NCc3ccc(Br)cc3)ccc2[nH]1`: the “activity change, negative = inhibition” value is inactive: -20%.
The result for `Cc1ccc(NC(=O)CSc2nccn2Cc2ccco2)cc1Cl` reads inactive: 30.4%.
`CCC(=O)N1CCc2cc(S(=O)(=O)NC(CC(C)C)C(=O)NCCc3cccc(C)c3)ccc21` (centres undefined): the “activity change, negative = inhibition” value was inactive: -23%.
For `COc1cccc(NC(=O)CSCc2cc(=O)c3ccc(C)c(C)c3[nH]2)c1`, the “activity change, negative = inhibition” value is inactive: 80.4%.
Take `Cn1c(=O)c2c(n3c4ccccc4nc13)NC(=O)CC2c1cccc(F)c1` (centres undefined): the “activity change, negative = inhibition” value was inactive: -5.64%.
As for `CCNc1ccc(-c2nc(-c3ccccn3)no2)cc1[N+](=O)[O-]`, the “activity change, negative = inhibition” value was inactive: 75.5%.
With `Cc1cc(NC(=O)COCc2cc(-c3ccc(F)cc3)on2)ccc1Br`, the “activity change, negative = inhibition” value is inactive: -18.9%.
Turning to `O=C(CCCCn1c(=O)c2ccccc2n(Cc2ccccc2Cl)c1=O)NCc1ccc2c(c1)OCO2`, the “activity change, negative = inhibition” value was inactive: -8.65%.
The result for `COC(=O)C1=C(C)NC(C)=C(C(=O)OCC(C)C)C1c1ccccc1[N+](=O)[O-]` (centres undefined) reads inactive: -22.6%; that for `CCCn1c2ccccc2c2cnn(CC(=O)N3CCN(c4ccccc4F)CC3)c(=O)c21`, inactive: 3.5%; that for `CCOc1ccc(CCNS(=O)(=O)c2c(C)nc3scc(C)n3c2=O)cc1OCC`, inactive: -10.4%.
Take `Cc1ccc(Nc2c(-c3ccc(Cl)cc3)nc3sccn23)c(C)c1`: the “activity change, negative = inhibition” value was inactive: -16.6%.
The result for `CCOc1ccc(CNC(=O)c2ccc3nc(CC)c(CC)nc3c2)cc1` reads inactive: 20.1%; that for `CC(C)Oc1cccc(C(=O)Nc2ccc3oc(-c4cccc(Cl)c4)nc3c2)c1`, inactive: 9.15%.
As to `Cc1ccc(C)c(NC(=O)N2CCC(CN3CCOCC3)CC2)c1`, the “activity change, negative = inhibition” value was inactive: -10.7%.
In the case of `CCn1c(=O)c2cc(C(=O)NCCCOC)sc2c2ccccc21` it was inactive: -12.2%.
`Cc1cc(C)n(-c2nc3ccccc3nc2Nc2ccc(Cl)cc2Cl)n1`: the “activity change, negative = inhibition” value was inactive: -11.4%.
In the case of `COc1ccc(CNC(=O)CCC2N=C3c4ccccc4N=C(SCc4cccc(F)c4)N3C2=O)cc1` (centres undefined) it was inactive: -19.3%; in that of `CC(=O)N1CCCc2cc(S(=O)(=O)NCc3cccc(C)c3)ccc21`, inactive: -24.7%; in that of `CCCN(CCC)C(=O)Cn1nnc2sc(-c3ccccc3)cc2c1=O`, inactive: -4.03%.
The result for `O=c1c2cnn(-c3ccc(F)cc3)c2ncn1Cc1cccc(Cl)c1` reads inactive: -3.99%; that for `Cc1nn2c(=O)cc(COC(=O)c3cccc(NC(=O)COc4ccccc4Cl)c3)nc2s1`, inactive: -10.3%.
Take `Cc1ccc(C(=O)c2cn(Cc3cccc(C)c3)c3nc(C)ccc3c2=O)cc1`: the “activity change, negative = inhibition” value was inactive: -19.7%.
Turning to `COc1ccc(NC(=O)Cn2c(=O)n(-c3ccccc3)c(=O)c3c4c(sc32)CCCC4)c(OC)c1`, the “activity change, negative = inhibition” value was inactive: -0.872%.
In the case of `CC(C)Oc1ccc(CNS(=O)(=O)c2ccc3c(c2)C(C)(C)C(=O)N3C)cc1` it was inactive: -22.5%.
As for `Cc1ccc(NC(=O)CSc2ncc(S(=O)(=O)c3ccc(C(C)C)cc3)c(=O)[nH]2)cc1C`, the “activity change, negative = inhibition” value is inactive: -5.19%.
